Drawing on article PMC7819943, “Rice protein-binding microarrays: a tool to detect cis-acting elements near promoter regions in rice”, this text covers binding signal for 42 sequences.

Some of the results follow.

This experiment addresses T1, OsWOX13 (Oryza sativa, UniProt Q5QMM3 1-267).
T1 sequence: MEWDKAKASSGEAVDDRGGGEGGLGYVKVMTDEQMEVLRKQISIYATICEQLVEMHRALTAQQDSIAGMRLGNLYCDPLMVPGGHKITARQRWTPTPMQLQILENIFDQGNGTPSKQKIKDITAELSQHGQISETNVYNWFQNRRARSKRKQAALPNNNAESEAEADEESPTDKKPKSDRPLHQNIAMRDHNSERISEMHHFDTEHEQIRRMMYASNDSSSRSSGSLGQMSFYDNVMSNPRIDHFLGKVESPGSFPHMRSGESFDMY
As to the kind of experiment: protein-binding microarray (RPBM); PBS, 2% BSA, 51.3 ng/ul salmon testes DNA, 50 uM zinc acetate, 200 nM TF, 25 C, 1 h; high values mean tight binding. The settings on record: protein: recombinant; tags: N-terminal polyhistidine and DsRed monomer fusion (pET32a); label: CyDye5-dUTP incorporated in the synthesized complementary strand; 3' TTTTT single-stranded linker to array surface; dsDNA, one strand shown. The procedure, abridged: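 Binding signal is defined as the fluorescence intensity of each feature in arbitrary units, read on an Axon 4000B scanner. Transcription factors with N-terminal polyhistidine and DsRed fusions came from E. coli BL21-CodonPlus and were purified on Ni–NTA. They were incubated at 200 nM for 1 h at 25 °C on a custom Agilent array that had been made double-stranded with Cy5-dUTP, with 50 µM zinc acetate present, and the array was washed.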
For the sequence “GCTCATCTATTCAATGAAATTGGCGGCTTACTGATTTGTTCGGAGTCACCTAGTGCAG”, the binding signal was 3210 fluorescence intensity (a.u.).

For “AGGAACAATTAAATTAAATTAAATTAAATTGCCTTAATATCGGAGTCACCTAGTGCAG”, the binding signal is 35300 fluorescence intensity (a.u.).

On to “TATTAATTTGTAATTAATATTGAATAACGCTGCGTGAGTACGGAGTCACCTAGTGCAG”, for which the binding signal is 45900 fluorescence intensity (a.u.).

As to “GTATGGTTAATGGACTACTAATTATTATAAACTTAGAGCACGGAGTCACCTAGTGCAG”, the binding signal is 28300 fluorescence intensity (a.u.).

Turning to “AGTCAATCTTAACCTCTTGTTTTCTCTGCAATTGCATCTTCGGAGTCACCTAGTGCAG”, the binding signal was 4740 fluorescence intensity (a.u.).

In the case of “CCTAATCTCTTAACATAATATACTTCACTCCCTTGGCACCCGGAGTCACCTAGTGCAG”, the binding signal was 3230 fluorescence intensity (a.u.).

On to “GATTAATTAGGCTTAATAAATTCGTCTCGCAGTTTACAAGCGGAGTCACCTAGTGCAG”, for which the binding signal is 37400 fluorescence intensity (a.u.).

For the sequence “TAACTATCCATTAACATATGATTAAATATTAGCTTTAAAACGGAGTCACCTAGTGCAG”, the binding signal was 6240 fluorescence intensity (a.u.).

As to “AAATTAAATCAAACTGATAATTTTCTGTTCGTCACATCGGCGGAGTCACCTAGTGCAG”, the binding signal was 17000 fluorescence intensity (a.u.).

As to “GTTATGATTAATTGCGCCATTAGGATATTAATTAATCTGGCGGAGTCACCTAGTGCAG”, the binding signal was 54500 fluorescence intensity (a.u.).

“CCAACAAATTGCCATTCTGCTGATTCAAGTGGCAGTTTTGCGGAGTCACCTAGTGCAG”: the binding signal was 18100 fluorescence intensity (a.u.).

“AGATTTTACTAATTAACATGAGAGTTACTAGAGAGTTCCACGGAGTCACCTAGTGCAG”: the binding signal is 8670 fluorescence intensity (a.u.).

Take “TTTGATTGATTAGTTTGGGGATAATGAAGAAAGTAATTTTCGGAGTCACCTAGTGCAG”: the binding signal is 47100 fluorescence intensity (a.u.).

Take “ATGCAATCAGGTTAATTAACCAAATCAGCAGATTGCGTAGCGGAGTCACCTAGTGCAG”: the binding signal was 29700 fluorescence intensity (a.u.).

Regarding “ATCAATTGAGTAACTATTTGGTGAACTCCTTAAACTTTTCCGGAGTCACCTAGTGCAG”, the binding signal is 3210 fluorescence intensity (a.u.).

Turning to “GACGGGAGACCCAATCATAAATTGGAGGCGCCGGCCATCTCGGAGTCACCTAGTGCAG”, the binding signal was 5030 fluorescence intensity (a.u.).

Take “TACTTACGGTAATTATTACTCCCTCCATCTACTTTTAATACGGAGTCACCTAGTGCAG”: the binding signal is 4010 fluorescence intensity (a.u.).

As to “AACTAATACGTAATTAATCACATTCTAATGCATTGCTCCGCGGAGTCACCTAGTGCAG”, the binding signal was 9530 fluorescence intensity (a.u.).

In the case of “CCAATCAACTTCTTTGATCATCCATGCATTCGTTACACTCCGGAGTCACCTAGTGCAG”, the binding signal was 4140 fluorescence intensity (a.u.).

Regarding “AAATTTACGTAATTATAATTTATTTTGTTATGAGTTGTTTCGGAGTCACCTAGTGCAG”, the binding signal is 22400 fluorescence intensity (a.u.).

“CTAATCGTATTGTAATCAATCATCAAAATTATTAGGGGCCCGGAGTCACCTAGTGCAG”: the binding signal was 24600 fluorescence intensity (a.u.).

Turning to “TACAACACCAAATTAATTTTACTAAATTTAACATTGAATACGGAGTCACCTAGTGCAG”, the binding signal is 12800 fluorescence intensity (a.u.).

Take “CACTTGACAGGTTCAGATGGCCTTCCTCCTACCGTCTGCCCGGAGTCACCTAGTGCAG”: the binding signal was 42200 fluorescence intensity (a.u.).

For the sequence “AGGAAATTGACAGGTGTGGAAATTGGGTCTTCCACAAAAGCGGAGTCACCTAGTGCAG”, the binding signal was 40600 fluorescence intensity (a.u.).

As for “TTGATTTATAAACTTTAGGTTTCTAAACTTTGGATGTGTACGGAGTCACCTAGTGCAG”, the binding signal is 13800 fluorescence intensity (a.u.).

Consider “TCTCCGCAAAATAATTATATTGAAACTTGTAGTAGCAAGACGGAGTCACCTAGTGCAG”, for which the binding signal was 3610 fluorescence intensity (a.u.).

As for “TAGAATAATTGAGGTCAGTCGTCCCTGGCCCCATATACTGCGGAGTCACCTAGTGCAG”, the binding signal is 20500 fluorescence intensity (a.u.).

Take “GTAAATTATGTGAAAGTCTCCGAGCACCAGCCATTTTGAACGGAGTCACCTAGTGCAG”: the binding signal was 3880 fluorescence intensity (a.u.).

As to “CGTTACATCGTTCTAATTTCAATCAAACTTCCAATTTTAACGGAGTCACCTAGTGCAG”, the binding signal is 6080 fluorescence intensity (a.u.).

With “CTCGGTGAGATAGATGGATGATGAGCTCAAATTTGTTGGGCGGAGTCACCTAGTGCAG”, the binding signal is 6900 fluorescence intensity (a.u.).

Turning to “AAAATTGATATATGTAAATATAATACAATGTAATTATTTGCGGAGTCACCTAGTGCAG”, the binding signal was 17800 fluorescence intensity (a.u.).

Take “TCTTGATGATGTGGAGTTTATGGAAACTATGTCTAGTGTTCGGAGTCACCTAGTGCAG”: the binding signal is 5540 fluorescence intensity (a.u.).

For “TTGGTTAATTAAGGTGAAATTCACTTTGTTAAATTCGCTTCGGAGTCACCTAGTGCAG”, the binding signal is 12700 fluorescence intensity (a.u.).

“GGCAAATCATCAAAGTTATTTGAGAAGATGGCATTTAGGACGGAGTCACCTAGTGCAG”: the binding signal is 4070 fluorescence intensity (a.u.).

“TTTATACTAAATCTTTAATTAAGACGAATGATCAAACGTTCGGAGTCACCTAGTGCAG”: the binding signal is 3610 fluorescence intensity (a.u.).

For the sequence “AGATTGACGCCGACAAGATTGATTAAGCAAGGTAGGGAAACGGAGTCACCTAGTGCAG”, the binding signal is 21400 fluorescence intensity (a.u.).

For the sequence “AGCCAGCATTTATAATTTGTAATTCATATCCAAACGACTGCGGAGTCACCTAGTGCAG”, the binding signal was 3650 fluorescence intensity (a.u.).

In the case of “ATGTAAATTGGTCAGACCCCTTTCTCTCACGTTGACCCTTCGGAGTCACCTAGTGCAG”, the binding signal is 27500 fluorescence intensity (a.u.).

In the case of “AATTTCAATTATTCTATGACGGTTCAGATCATGCCCTGATCGGAGTCACCTAGTGCAG”, the binding signal is 3230 fluorescence intensity (a.u.).

With “CCCTCAATTATTATCATGTTCGATTTTCAAATCTCAACGACGGAGTCACCTAGTGCAG”, the binding signal is 15800 fluorescence intensity (a.u.).

As to “ATGATGATCATGTTTGATTTTAAAATCTCAATGGCAATAACGGAGTCACCTAGTGCAG”, the binding signal was 16900 fluorescence intensity (a.u.).

“ATTTTAAATGTGTCCTGATTTCTTTTCCATGTGATCCAGTCGGAGTCACCTAGTGCAG”: the binding signal is 6340 fluorescence intensity (a.u.).
